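Results reflect a 48-hour exposure of cells in 96-well plates to compound at five concentrations. GI50 marks 50% less growth.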 Active and inactive are the calls of the source. No stated cut-off is given here; in the data, active = GI50 up to about 1.1 µM and inactive = higher.
The molecules below were run on NCI-H322M (assay: NCI-60 cell line screen, 48 h).

SMILES	GI50
COc1cc(/C=C(\C#N)c2ccccc2)cc(OC)c1	inactive: > 100 µM
S=C(Nc1ccc2c(c1)oc1ccccc12)c1cccs1	inactive: 47.6 µM
COc1ccc2c3c1OC1C4(CCC5C(C2)N(CC2CC2)CCC351)OCCO4 (stereo unspecified)	inactive: > 100 µM
COc1ccc(C2C(C(=O)O)=C(CO)Oc3cc4c(cc32)OCO4)cc1 (stereo unspecified)	inactive: > 100 µM
CN(C(=O)Cc1cc(Cl)c(Cl)cc1N=C=S)[C@H]1CCCC[C@@H]1N1CCCC1	inactive: 15.4 µM
CC1(CCC(=O)OC2CCCCC2)OCCO1	inactive: > 100 µM
Cn1c(=O)c2c(nc3sc4ncccc4c(=O)n32)n(C)c1=O	inactive: > 100 µM
COc1ccc(/N=[N+](\[O-])c2ccc(OC)cc2)cc1	inactive: > 100 µM
C=C(C)C1CC=C(C)C(=O)C1 (stereo unspecified) [CARVONE]	inactive: > 100 µM
O=C(Cn1nc(Br)c(Br)c1Br)c1ccccc1	inactive: 30.1 µM
CC(C)[Si]1(C(C)C)OCC2OC(n3c(C(=O)c4ccccc4)cc(=O)[nH]c3=O)CC2O[Si](C(C)C)(C(C)C)O1 (stereo unspecified)	inactive: 7.91 µM
COc1ccc(S(=O)(=O)Nc2ccc(-c3csc(N4C(=O)/C(=C/c5ccccc5[N+](=O)[O-])N=C4c4ccccc4)n3)cc2)cc1Cl	inactive: > 100 µM
COc1cc(OC)nc(-n2c(N)c(C#N)c3ccc([N+](=O)[O-])cc3c2=O)n1	inactive: > 100 µM
N#C[C-](C#N)[n+]1ccc(Cl)cc1	inactive: > 10 µM
O=[N+]([O-])c1c(O)c2nonc2c2nn(-c3ccccc3)nc12	inactive: 68.1 µM
Cc1ccc(/C=N/Nc2nc3ccccc3s2)s1	inactive: > 100 µM
COC(OC)c1cc2c(cc1C(=O)[C@@]13CCC[C@@H]1NC(=O)O3)OCO2	inactive: > 100 µM
O=C1C(Cl)=C(Sc2nnc3c4ccccc4c4ccccc4c3n2)C(=O)c2ccccc21	inactive: 15.7 µM
C[C@]12CC[C@@H]3c4ccc(OS(N)(=O)=O)cc4CC[C@H]3[C@@H]1CCC2=O [EMATE]	inactive: 98.2 µM
COC(=O)c1cc(C)ccc1/C=C1\Cc2cccc(C)c2C1=O	inactive: > 100 µM
O=C1CCCC/C1=C/C=C/c1ccccc1	inactive: > 100 µM
Cn1cnc2c(OCC3CCCCC3)nc(N)nc21	inactive: > 100 µM
CC(C)(C)c1cc(OCc2nnc3sc(Cc4ccccc4)nn23)c(Cl)cc1OCc1nnc2sc(Cc3ccccc3)nn12	inactive: 44.6 µM

SMILES	GI50
N/N=C1/C2CN3CCN(C2)CC1(c1ccc([N+](=O)[O-])cc1)C3	inactive: > 100 µM
COc1ccc(N[S+]([O-])c2ccc(OC)cc2)cc1 (stereo unspecified)	inactive: 26.9 µM
NC(=O)SCCC(N)C(=O)O (stereo unspecified)	inactive: > 100 µM
O=C(OC1OC2COC(=O)c3cc(O)c(O)c(O)c3-c3c(cc(O)c(O)c3O)C(=O)OC3C2OC(=O)[C@@]24CC(=O)[C@@](O)(OC25C(=O)O[C@H]2[C@@H](O)CO[C@@]25O)C2(O)Oc5c(O)c(O)cc(c5C24)C(=O)OC13)c1cc(O)c(O)c(O)c1 (stereo partly specified)	inactive: 20.8 µM
O=C(N/N=C/c1ccccc1O)N/N=C/c1ccccc1O	inactive: > 100 µM
COC1C=CC(O)C(CO)O1 (stereo unspecified)	inactive: > 100 µM
Cc1nnc2n1N=C(c1ccc(-c3ccc([N+](=O)[O-])cc3)o1)CS2	inactive: > 100 µM
COc1ccc(-c2cc(-c3ccncc3)nc(N)c2-c2ccc(F)cc2)cc1	inactive: 86.3 µM
O=C(Cc1ccc(Cl)cc1)Nc1ccc2oc(-c3ccccc3)nc2c1	inactive: 65 µM
Cn1ccnc1C(c1nccn1C)C(C)(C)[N+](=O)[O-]	inactive: > 100 µM
CC1(C)OC(=O)C(=C2CCC(C(=O)Nc3cccc(C(F)(F)F)c3)N2)C(=O)O1 (stereo unspecified)	inactive: > 100 µM
CC1=CCCC2C1(C)CCC(C)C2(C)Cc1cc(O)ccc1O (stereo unspecified)	inactive: 7.55 µM
Cc1ccc(NC(=O)/C(=N\NC(N)=S)C(C#N)c2ccccc2C)cc1C (stereo unspecified)	inactive: > 100 µM
CN(C)CCCNc1cnc2cc3ccccc3cc2n1	inactive: 30.3 µM
NC(=O)c1nnc2c(F)cccc2c1N	inactive: > 100 µM
c1ccc(C[P+]2(c3ccccc3)c3ccccc3-c3ccccc32)cc1	inactive: > 100 µM
N=c1oc2cc(O)ccc2cc1C(=O)NCc1ccccc1	inactive: 30.9 µM
CCC1c2[nH]c3ccccc3c2C[C@H]2C(=O)NC(Cc3c[nH]c4ccccc34)C(=O)N12 (stereo partly specified)	inactive: 33.6 µM
COc1ccc([C@]23CCN4COC[C@@H]([C@H]42)C2(CC3)OCC(C)(C)CO2)cc1OC	inactive: > 100 µM
COc1cc(OC)cc(-c2cc(O)c3cc4c(cc3n2)OCO4)c1	active: 0.285 µM
CC12CC[C@@H](C(C)(C)O)C1[C@@H](O)CC1(C)C2CCC2[C@@]3(C)CC[C@H](O)C(C)(C)C3C(O)C[C@]21C (stereo partly specified)	inactive: 17.3 µM
CC(=O)c1cc2c(Br)cccc2oc1=O	inactive: > 100 µM
C#CCCCOc1ncccn1	inactive: > 100 µM
